Experimental data from PMC5522103.
Results are given in words; binding and its absence hold for the method and conditions named. Binding seen in cells or lysates may run through a third protein. Some entries that bind do so weakly or less than the wild type.

The chains behind the UniProt entries cited, without tags or fusion partners.
UniProt P23771: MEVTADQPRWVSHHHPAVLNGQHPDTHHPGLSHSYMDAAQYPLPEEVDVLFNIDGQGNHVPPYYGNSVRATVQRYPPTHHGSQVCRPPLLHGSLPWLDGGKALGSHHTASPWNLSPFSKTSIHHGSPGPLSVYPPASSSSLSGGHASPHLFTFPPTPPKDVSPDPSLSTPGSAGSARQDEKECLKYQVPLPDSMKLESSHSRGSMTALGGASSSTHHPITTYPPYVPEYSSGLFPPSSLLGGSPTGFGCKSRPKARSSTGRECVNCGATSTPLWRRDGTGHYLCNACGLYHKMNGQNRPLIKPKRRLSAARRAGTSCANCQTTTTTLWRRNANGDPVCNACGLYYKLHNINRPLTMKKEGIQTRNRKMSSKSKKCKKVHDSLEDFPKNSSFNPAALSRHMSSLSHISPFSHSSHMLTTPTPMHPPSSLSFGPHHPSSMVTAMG

What was measured:
Assay in all cases: co-IP; endogenous proteins in MCF7 cell lysates; lysates incubated with 4 ug of antibody (anti-ER(α), anti-Ell3, anti-GATA3 or anti-FOXA1) for 16 h at 4°C, then protein G beads 1 h at 4°C; beads washed once in lysis buffer; western blot
[1] = target: T1, Ell3 (transcription elongation factor, eleven-nineteen lysine-rich leukemia family) (human (endogenous in MCF7)) (UniProt Q9HB65)
T1 sequence: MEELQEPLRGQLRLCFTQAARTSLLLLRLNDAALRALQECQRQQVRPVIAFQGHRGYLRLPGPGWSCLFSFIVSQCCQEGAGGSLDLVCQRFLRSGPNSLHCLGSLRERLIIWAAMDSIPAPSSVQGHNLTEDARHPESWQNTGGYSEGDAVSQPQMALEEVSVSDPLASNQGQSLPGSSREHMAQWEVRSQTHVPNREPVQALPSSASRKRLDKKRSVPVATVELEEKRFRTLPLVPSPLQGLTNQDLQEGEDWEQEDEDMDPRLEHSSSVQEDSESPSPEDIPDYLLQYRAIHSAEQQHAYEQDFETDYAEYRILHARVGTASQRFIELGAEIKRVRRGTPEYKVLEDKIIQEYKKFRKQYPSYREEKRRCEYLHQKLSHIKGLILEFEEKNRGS

[2] = target: Estrogen receptor alpha (human (endogenous in MCF7)) (UniProt P03372)
[3] = target: T2, FOXA1 (human (endogenous in MCF7)) (UniProt P55317)
T2 sequence: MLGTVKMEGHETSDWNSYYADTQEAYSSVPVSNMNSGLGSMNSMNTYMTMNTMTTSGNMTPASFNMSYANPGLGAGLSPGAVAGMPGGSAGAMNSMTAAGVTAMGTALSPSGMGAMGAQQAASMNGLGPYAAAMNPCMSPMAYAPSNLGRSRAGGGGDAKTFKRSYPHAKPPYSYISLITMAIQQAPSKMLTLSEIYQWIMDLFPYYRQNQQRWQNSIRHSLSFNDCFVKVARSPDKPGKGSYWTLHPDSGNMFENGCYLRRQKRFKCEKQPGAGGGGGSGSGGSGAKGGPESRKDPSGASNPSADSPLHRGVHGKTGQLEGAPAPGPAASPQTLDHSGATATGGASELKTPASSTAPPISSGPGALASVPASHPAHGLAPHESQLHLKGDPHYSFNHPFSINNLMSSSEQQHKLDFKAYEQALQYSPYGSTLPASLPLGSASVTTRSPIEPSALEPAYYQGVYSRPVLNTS

[4] = target: GATA3 (human (endogenous in MCF7)) (UniProt P23771)
[5] = target: T3, Estrogen receptor alpha (human (endogenous in MCF7)), P03372; conditions: remark: other sources report otherwise
T3 chain: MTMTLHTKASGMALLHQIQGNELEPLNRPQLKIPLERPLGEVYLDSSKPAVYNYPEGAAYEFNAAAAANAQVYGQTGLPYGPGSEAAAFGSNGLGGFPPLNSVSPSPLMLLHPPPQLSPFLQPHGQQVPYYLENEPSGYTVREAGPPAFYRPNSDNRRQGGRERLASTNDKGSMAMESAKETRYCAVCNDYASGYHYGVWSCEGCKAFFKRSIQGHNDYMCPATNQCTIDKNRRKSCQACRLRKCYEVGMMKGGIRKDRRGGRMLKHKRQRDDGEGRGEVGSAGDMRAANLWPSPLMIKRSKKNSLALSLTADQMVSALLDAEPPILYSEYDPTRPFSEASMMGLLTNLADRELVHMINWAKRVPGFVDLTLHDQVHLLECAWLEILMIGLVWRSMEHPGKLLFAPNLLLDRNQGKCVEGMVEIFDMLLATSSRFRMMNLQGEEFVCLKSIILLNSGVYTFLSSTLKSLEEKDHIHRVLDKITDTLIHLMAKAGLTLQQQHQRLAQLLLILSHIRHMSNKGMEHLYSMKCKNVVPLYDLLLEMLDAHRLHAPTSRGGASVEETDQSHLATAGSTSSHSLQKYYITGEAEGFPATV

Estrogen receptor alpha (from UniProt P03372 1-595)
binding [1]: binds

GATA3 (from UniProt P23771 1-443)
binding [2]: binds

B1: Ell3 (transcription elongation factor, eleven-nineteen lysine-rich leukemia family) (protein, UniProt Q9HB65 1-397)
chain: MEELQEPLRGQLRLCFTQAARTSLLLLRLNDAALRALQECQRQQVRPVIAFQGHRGYLRLPGPGWSCLFSFIVSQCCQEGAGGSLDLVCQRFLRSGPNSLHCLGSLRERLIIWAAMDSIPAPSSVQGHNLTEDARHPESWQNTGGYSEGDAVSQPQMALEEVSVSDPLASNQGQSLPGSSREHMAQWEVRSQTHVPNREPVQALPSSASRKRLDKKRSVPVATVELEEKRFRTLPLVPSPLQGLTNQDLQEGEDWEQEDEDMDPRLEHSSSVQEDSESPSPEDIPDYLLQYRAIHSAEQQHAYEQDFETDYAEYRILHARVGTASQRFIELGAEIKRVRRGTPEYKVLEDKIIQEYKKFRKQYPSYREEKRRCEYLHQKLSHIKGLILEFEEKNRGS
binding [2]: binds
binding [3]: no binding
binding [4]: binds

B2: FOXA1, P55317 1-472 (protein)
chain: MLGTVKMEGHETSDWNSYYADTQEAYSSVPVSNMNSGLGSMNSMNTYMTMNTMTTSGNMTPASFNMSYANPGLGAGLSPGAVAGMPGGSAGAMNSMTAAGVTAMGTALSPSGMGAMGAQQAASMNGLGPYAAAMNPCMSPMAYAPSNLGRSRAGGGGDAKTFKRSYPHAKPPYSYISLITMAIQQAPSKMLTLSEIYQWIMDLFPYYRQNQQRWQNSIRHSLSFNDCFVKVARSPDKPGKGSYWTLHPDSGNMFENGCYLRRQKRFKCEKQPGAGGGGGSGSGGSGAKGGPESRKDPSGASNPSADSPLHRGVHGKTGQLEGAPAPGPAASPQTLDHSGATATGGASELKTPASSTAPPISSGPGALASVPASHPAHGLAPHESQLHLKGDPHYSFNHPFSINNLMSSSEQQHKLDFKAYEQALQYSPYGSTLPASLPLGSASVTTRSPIEPSALEPAYYQGVYSRPVLNTS
binding [5]: binds

B3: FOXA1 (protein, UniProt P55317 1-472)
chain: MLGTVKMEGHETSDWNSYYADTQEAYSSVPVSNMNSGLGSMNSMNTYMTMNTMTTSGNMTPASFNMSYANPGLGAGLSPGAVAGMPGGSAGAMNSMTAAGVTAMGTALSPSGMGAMGAQQAASMNGLGPYAAAMNPCMSPMAYAPSNLGRSRAGGGGDAKTFKRSYPHAKPPYSYISLITMAIQQAPSKMLTLSEIYQWIMDLFPYYRQNQQRWQNSIRHSLSFNDCFVKVARSPDKPGKGSYWTLHPDSGNMFENGCYLRRQKRFKCEKQPGAGGGGGSGSGGSGAKGGPESRKDPSGASNPSADSPLHRGVHGKTGQLEGAPAPGPAASPQTLDHSGATATGGASELKTPASSTAPPISSGPGALASVPASHPAHGLAPHESQLHLKGDPHYSFNHPFSINNLMSSSEQQHKLDFKAYEQALQYSPYGSTLPASLPLGSASVTTRSPIEPSALEPAYYQGVYSRPVLNTS
binding [4]: binds
